Experimental data taken from PubChem BioAssay AID1963431 (Molecular Pharmacology Branch, DTP, NCI, 2024).
For part of its entries the source gives two or more results. Only these are listed. An entry can have further records. The records of an entry are repeats in other runs, samples, wells, individuals or studies. Dates in brackets are months of testing. Signs of the kind (2×) say how often a value occurs here.

System: Rh18 complex spheroid viability, percent test/control
Experiment: Anticancer human tumor Rh18 cell line growth inhibition [Asc];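 note: spheroids exposed to compound for 7 days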;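 for viability, T/C: 100% = DMSO vehicle control wells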
Settings: for viability, T/C: stronger effect = lower value
Procedure: Multicellular complex tumor spheroid response to apoptosis pathway targeting inhibitors Alrizomadlin, Pelcitoclax, and Dasminapant in combination with a variety of drugs and investigational agents in selected tumor cell lines
The MDM2 inhibitor alrizomadlin, the Bcl-2/Bcl-xL inhibitor pelcitoclax, and the IAPs inhibitor dasminapant were evaluated both individually and in combination with standard of care and investigational anticancer small molecules within a complex spheroid model of solid tumors. . Complex spheroids include a stromal component modeled by human endothelial cells (HUVEC) and fibroblasts modeled by human mesenchymal stem cells (MSCs). The concentration ranges selected for each drug and investigational agent were based upon clinically achievable concentrations if the clinical Cmax of the agent was known.
Compounds. The drugs and investigational agents: alrizomadlin (APG-115; NSC831270), pelcitoclax (APG-1252; NSC835773), dasminapant (APG-1387;NSC834197), TAK-243 (NSC785004), copanlisib (NSC809693), olaparib (NSC753686), talazoparib (NSC767125), cobimetinib (NSC 768068), eltanexor (KPT-8602, NSC 794443), abemaciclib (NSC 768073), sotorasib (NSC818433), adagrasib (NSC 831453), MRTX-1133 (NSC 836407), Iadademestat (ORY1001, NSC 806812), and RMC-4630 (NSC839698), were obtained from the NCI Developmental Therapeutics Program Chemical Repository. The FDA-approved anticancer drug set is available from the Developmental Therapeutics Program at https://dtp.cancer.gov/organization/dscb/obtaining/available plates.htm. […] The stock solutions were prepared in dimethyl sulfoxide (DMSO, Sigma-Aldrich, St. Louis, MO, cat. D2650) at 800-fold the tested concentration and stored at -70 degrees C prior to their use. All drugs and investigational agents were tested over a range starting from a high concentration at or near the clinical Cmax and decreasing in half-log increments. If the clinical Cmax for an agent had not been determined, the highest concentration tested was 10 microM.
The patient-derived cancer (PDC) cell lines include five colon adenocarcinomas: 186277-243-T-J2-PDC, 616215-338-R-J1-PDC, 439559-082-T-J2-PDC, 463943-066-T-J2-PDC, and 519858-162-T-J1-PDC; three pancreatic carcinomas: 323965-272-R-J2-PDC, 521955-158-R6-J3-PDC, and 521955-158-R2-J5-PDC; two uterine sarcomas: 327498-152-R-J2-PDC and 993429-296-R-J1-PDC; two rhabdomyosarcomas: 755483-174-R-J1-PDC and 772245-204-R-J1-PDC; two soft tissue sarcomas: 126254-015-R-J1-PDC and 494315-158-R-J1-PDC; two malignant fibrous histiocytomas: 317291-083-R-J1-PDC and 596521-263-R-J1-PDC; two breast carcinomas: 171881-019-R-J1-PDC and 885512-296-R-J2-PDC; and one ovarian carcinoma: 6556581-035-R-J-PDC were obtained from the NCI PDMR, (https://pdmr.cancer.gov). The established cell lines HSSY-2 synovial sarcoma (RRID:CVCL 8719), SYO-1 synovial sarcoma (RRID:CVCL_7146), MPNST malignant peripheral neural sheath tumor were obtained from the Sloan Kettering Institute. The following established cell lines were purchased from the American Type Culture Collection (ATCC, Manassas, VA), Sor the received from the NCI repository:, PANC-1 pancreatic carcinoma (CRL-1469, RRID:CVCL_0480), OVCAR-5 ovarian carcinoma (RRID:CVCL_1628), OVCAR-8 ovarian carcinoma (RRID:CVCL_1629), , MCF-7 breast carcinoma (CRL-12584, RRID:CVCL_0031), MDA-MB-231 breast carcinoma (CRL-12532, RRID:CVCL_0062), NCI-H1876 small cell lung carcinoma (CRL-5902, RRID:CVCL_1503), NCI-H510A small cell lung carcinoma (HTB-184, RRID:CVCL_1565), NCI-H1417 (CRL-5869, RRID:CVCL_1469), and NCI-H196 small cell lung carcinoma (CRL-5823, RRID:CVCL_1509). Dr. Peter Houghton (Greehey Children's Cancer Research Institute, University of Texas Health Science Center, San Antonio, TX) provided Rh-18 rhabdomyosarcoma (RRID:CVCL_1659). Pooled donor human umbilical vein endothelial cells (HUVEC, Lonza, cat. CC-2519) and human mesenchymal stem cells (hMSC, Lonza, cat. PT-2501) were purchased from Lonza (Walkersville, MD).
Cell Culture. […]

**Q.** What does the source list for `CNC(C)C(=O)NC1CN(S(=O)(=O)c2cccc(S(=O)(=O)N3CCC4CCC(C(=O)NC(c5ccccc5)c5ccccc5)N4C(=O)C(NC(=O)C(C)NC)C3)c2)CCC2CCC(C(=O)NC(c3ccccc3)c3ccccc3)N2C1=O` (stereo unspecified)?
**A.** viability, T/C (compound alone 0.01 µM): 63.3, 57.9, 60.2, 71.1, 58.5, 67.1, 45.9, 62.1, 55.8, 61.5, 63.2, 65.3, 59.4% [2022-10] and 64% [2022-11]; viability, T/C (compound alone 0.0316 µM): 43.9, 48, 54, 59.7, 56.9, 59.9, 57.8, 62.3, 46.9, 60.8, 53.3, 37.5, 64% [2022-10] and 53.5% [2022-11]; viability, T/C (compound alone 0.1 µM): 41.9 (2×), 37.4, 44.8, 38.6, 56.3, 40.3, 44.7, 56.4, 33.1, 40.7, 51, 49.2% [2022-10] and 59.8% [2022-11]; viability, T/C (compound alone 0.316 µM): 44, 40.3, 66.8, 50.6, 45.7, 35.9, 43.1, 58.8, 35, 46.6, 39.3, 52.1, 32.5% [2022-10] and 67.2% [2022-11]; viability, T/C (compound alone 1 µM): 24.7, 39.8, 45.9, 49.7, 41.1, 44, 43.8, 43.6, 40.1, 35.8, 42.9, 47.9, 39.9% [2022-10] and 60.2% [2022-11]; IC50 (compound alone, run of 10/24/2022): > 1 µM, 72.7 nM, 219 nM, 56.4 nM, 14.5 nM, 592 nM, 17.2 nM, 74.8 nM, 44 nM, 26.3 nM, 93.2 nM
